Experimental data: the supplement of paper PMC3334620
Whole data set: some 33,000 sequences, median “E-score (-0.5 to 0.5)” near -0.011, cut for the highest 2% near 0.28. This is one part of the list.

molecular target: T1, Gcr1 (UniProt P07261); test: PBM E-score (8-mer binding enrichment) (E-score (-0.5 to 0.5)); higher = stronger / more preferred TF binding; most listed sequences are background and not binding sites; conditions: protein concentration: 100 nM; construct: GST-full length
T1 sequence: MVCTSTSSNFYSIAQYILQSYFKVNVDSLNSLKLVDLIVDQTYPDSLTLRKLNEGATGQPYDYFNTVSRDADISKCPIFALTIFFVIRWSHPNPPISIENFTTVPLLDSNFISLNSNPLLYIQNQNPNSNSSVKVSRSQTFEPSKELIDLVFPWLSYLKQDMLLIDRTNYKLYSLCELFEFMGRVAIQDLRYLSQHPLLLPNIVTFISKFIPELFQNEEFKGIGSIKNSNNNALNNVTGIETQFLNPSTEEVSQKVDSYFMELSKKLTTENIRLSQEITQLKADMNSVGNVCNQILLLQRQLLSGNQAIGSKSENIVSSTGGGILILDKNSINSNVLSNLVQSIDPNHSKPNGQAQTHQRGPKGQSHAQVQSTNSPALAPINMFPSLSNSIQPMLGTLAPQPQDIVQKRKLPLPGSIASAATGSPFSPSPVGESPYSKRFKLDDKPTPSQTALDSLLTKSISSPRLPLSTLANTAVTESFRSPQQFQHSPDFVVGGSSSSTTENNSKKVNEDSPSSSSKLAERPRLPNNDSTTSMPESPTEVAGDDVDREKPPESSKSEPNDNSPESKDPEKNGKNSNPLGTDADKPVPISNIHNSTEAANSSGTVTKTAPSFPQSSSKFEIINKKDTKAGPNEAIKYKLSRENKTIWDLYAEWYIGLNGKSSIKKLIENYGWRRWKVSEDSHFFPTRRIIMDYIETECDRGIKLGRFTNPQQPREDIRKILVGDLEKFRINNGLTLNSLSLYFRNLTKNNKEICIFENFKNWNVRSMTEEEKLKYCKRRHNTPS
Method in brief: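 For each ungapped eight-base word taken together with its reverse complement, the Universal PBM Analysis Suite assigned an E-score. Binding data came from GST-tagged yeast transcription factors, applied at about 100-200 nM, on universal all-10-mer Agilent arrays made double-stranded by primer extension. Fluorescent anti-GST marked bound protein, and scans were normalised with masliner.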

Row | Sequence | PBM E-score
1 | CCACAACC | 0.225
2 | CTAGAGCC | -0.15
3 | CGGAAAAG | -0.0456
4 | AACCTTTC | 0.0668
5 | ATTGTCGG | -0.0342
6 | ATTTTTGC | 0.202
7 | GCGTGAGA | -0.201
8 | AATGAATT | 0.0972
9 | GAAGAACC | 0.05
10 | GCTGACCA | 0.0433
11 | GCGAGACC | -0.267
12 | ACTTGTTC | 0.01
13 | AGGGATCC | 0.286
14 | ATGTCGCG | -0.0443
15 | CGAGAACG | -0.0533
16 | AGCACGAG | 0.0114
17 | GGTATCAA | 0.0161
18 | ACAGGACC | 0.0207
19 | CCTCCCGC | -0.145
20 | TCTCCGCA | -0.0343
21 | CACGCAGA | -0.137
22 | ACTACAAC | 0.0309
23 | TATGGGAA | 0.129
24 | AAAAACGA | 0.135
25 | GTTGGGGA | 0.113

Row | Sequence | PBM E-score
26 | AGTGGGTA | 0.0272
27 | CACATGGG | 0.0536
28 | AGCATCCC | 0.33
29 | AGACCGAT | -0.146
30 | GAAGCGTC | 0.268
31 | CCTCCTCG | -0.262
32 | GAACGGGC | -0.0356
33 | AGTCTGCG | -0.0644
34 | CAGGTACC | 0.038
35 | ACCTGGGG | -0.0986
36 | CCGCTTAA | 0.0158
37 | CGACGCCC | 0.287
38 | TAAGAGTA | -0.0195
39 | CTGCATTA | -0.192
40 | CCAGAGGC | 0.183
41 | CATGATCA | -0.0223
42 | AGGCTATA | -0.0532
43 | GGACTGGA | -0.0243
44 | CCAGCCAG | -0.168
45 | AGATATTA | 0.211
46 | TACCTTCA | -0.148
47 | AGACGCCA | 0.283
48 | GCGATCCA | -0.12
49 | ACCTCCTG | 0.0018
50 | AAACTCGG | 0.0566

Row | Sequence | PBM E-score
51 | ACCCTGGG | -0.0476
52 | GATCAAGA | 0.0722
53 | AATGAAAC | 0.213
54 | AACGCGGG | -0.0186
55 | CACCGAGG | -0.183
56 | CATCAGCC | -0.131
57 | ATCGGCAA | -0.0338
58 | ACTGCAGC | -0.0382
59 | ACCGCCAC | 0.0444
60 | AAGGAATT | 0.0201
61 | GCCGCCCC | 0.188
62 | AGGTGAAG | -0.0354
63 | TGTCGACA | -0.233
64 | GTACATAA | -0.00437
65 | GCACCGCA | 0.131
66 | ACAGATTC | 0.176
67 | ATTTACAG | -0.0896
68 | AAGTGTCT | -0.0238
69 | AAAGAGTC | -0.0716
70 | AAGCAGCT | 0.33
71 | ATGTGCAC | -0.201
72 | AGAGTCCC | 0.0617
73 | GGTAGACA | 0.0236
74 | ATCTCTTA | 0.0968
75 | CTGCTGCC | -0.0289

Row | Sequence | PBM E-score
76 | CCGCGCGC | -0.135
77 | AACCGTGG | -0.00526
78 | ACCCAGTA | 0.265
79 | CATTAATA | 0.184
80 | ACGTCTCG | -0.22
81 | GTGGAGTA | -0.114
82 | ACGAACGG | -0.134
83 | AATAGAGA | -0.0168
84 | CAAGCGAG | 0.0239
85 | CATCCCCA | 0.0781
86 | GCATAGAA | -0.0243
87 | ACGCTAGC | -0.22
88 | TAGCCATA | -0.218
89 | ATGGGAGC | 0.1
90 | CTATGCAC | -0.129
91 | TGAGCCAA | -0.167
92 | GACACACC | -0.159
93 | CAACTGGA | 0.212
94 | GATGCGCC | 0.067
95 | AAGAATTG | 0.0115
96 | GAATGTCA | 0.0276
97 | CTCACACA | 0.1
98 | CCAGACCA | 0.0882
99 | GCTAGAAA | 0.0615
100 | AGAATTAC | 0.217

Row | Sequence | PBM E-score
101 | ACTACGCA | -0.178
102 | AACGGGCC | -0.216
103 | CAGAGAGC | -0.117
104 | GGTTCGAC | -0.205
105 | CAACCATC | -0.0953
106 | CCCTTAGA | 0.00852
107 | CGTTCTCA | -0.128
108 | TGACACAA | 0.0905
109 | CCATCCCA | -0.053
110 | AATGTGTC | -0.143
111 | ATGGGTCA | 0.00551
112 | ACAAATTA | 0.0552
113 | ATCTCCCC | -0.0855
114 | AGTGCATA | -0.235
115 | GCGTCTCC | 0.317
116 | CGAGACCC | -0.0499
117 | CGTGTTCC | 0.0364
118 | CTTCGTTC | -0.0459
119 | GAGACGAA | -0.0232
120 | AAGAACTT | -0.118
121 | TCGGCAGA | -0.355
122 | ACCCAACC | -0.0604
123 | CACCTGGC | -0.0993
124 | GAGTAGGC | -0.115
125 | ATACCACA | 0.069

Row | Sequence | PBM E-score
126 | ATACGGTA | -0.0716
127 | GCGGTAGC | 0.0196
128 | ATAATGAT | 0.111
129 | CTTTCTCA | 0.097
130 | GAAAAAAC | 0.0384
131 | CTTGATGC | -0.041
132 | AGATGGAG | -0.0368
133 | AGGTGCCA | 0.191
134 | AAATCAAG | 0.0229
135 | ACATGACA | -0.0788
136 | ATGGTATG | -0.0617
137 | GTATCTTA | 0.157
138 | CCAAATAA | 0.11
139 | CCAATCTC | 0.0169
140 | ACCTAACC | -0.129
141 | AGGGGGAC | -0.0068
142 | CCAGGTGA | -0.0722
143 | ACCGCTTC | 0.0447
144 | GTTCCGAA | 0.153
145 | AGTACACT | -0.0698
146 | TCAGCAGA | -0.0771
147 | AACTGGTA | 0.224
148 | TTTCAAAA | 0.00738
149 | TAGGGGGA | 0.0246
150 | AACACCAG | -0.155

Row | Sequence | PBM E-score
151 | CCGAGCAG | -0.0428
152 | ATTAACCA | -0.0192
153 | GTGTTTTA | 0.0808
154 | CCTCCGGA | 0.0678
155 | AACGAGGT | 0.0158
156 | GGGCATGA | -0.16
157 | CCCCGATC | -0.111
158 | CTATATTC | -0.0208
159 | ACGAGGCT | 0.0987
160 | CTAATGGA | 0.217
161 | CCGGAAGC | 0.439
162 | ATCTCCAA | 0.0732
163 | ACAGTAAG | -0.178
164 | ATTCAACC | -0.0136
165 | TAAGTGGA | 0.287
166 | AGTCGCTG | 0.0679
167 | GTCAAGCA | -0.029
168 | AGTTAAAT | -0.0999
169 | GTCCCTCA | -0.111
170 | CGGTCTCA | -0.0959
171 | ATCATCAA | -0.0509
172 | ATTCTCTC | -0.0118
